Drawing on PubChem BioAssay AID463173 (ICCB-Longwood Screening Facility, Harvard Medical School, 2010), this text covers survival for 88 compounds.

Each structure is given as a SMILES string. Hit rate of the full screen: of about 52,000 compounds, about 4,300 (8.3%) were called active. No stated cut-off is given here; in the data, active means survival mostly below about 52% (no sharp cut-off); inactive means mostly above about 56%. This is one part of the list.

In the assay the test system is DeltatarO mutant. In words: S. aureus survival, RN4220 and DeltatarO strains – OD600, teichoic acid synthesis inhibitors, primary screen (AID 463173). Conditions: S. aureus RN4220 wild type/DeltatarO growth, OD600, 18 h, stronger effect = lower value, screened at 18.75 µg/mL (by protocol).
Turning to `Cc1ccc(NC(=O)CSc2nc3ccc(NC(=O)c4cccs4)cc3s2)c(C)c1`, the survival is inactive: 74%.
The result for `CCOC(=O)c1c(C)oc2nc(C)nc(NCC3CCN(Cc4cccc(C)c4)CC3)c12` reads inactive: 84%; that for `CCOc1ccc(CCNC(=O)C2CCN(C(=O)N3CC(CC)Oc4ccc(C)cc43)CC2)cc1` (stereo not drawn), inactive: 63%.
In the case of `C1CCC(CNCC2CCCO2)CC1` (stereo not drawn) it was inactive: 77%; in that of `COc1ccc(C(=O)COC(=O)c2cc(-c3ccccc3)nc3c(C)cccc23)cc1`, inactive: 64%.
Regarding `Cc1ccc(Cc2nc3ccccc3nc2SCC(=O)N2CCN(c3ccccc3F)CC2)cc1`, the survival is inactive: 49%.
Regarding `O=C1CCc2cc(S(=O)(=O)NCc3ccc(F)cc3)cc3c2N1CC3`, the survival was inactive: 81%.
In the case of `CC(=O)N1CCCc2ccc(NS(=O)(=O)c3ccc(C)c(C)c3)cc21` it was inactive: 77%; in that of `CN(C(=O)CCc1ccccc1)c1nnc(-c2ccncc2)s1`, inactive: 99%.
As for `CCC(=O)N1CCc2cc(Br)cc(S(=O)(=O)N3CCCC(C(=O)NCc4cccc(OC)c4)C3)c21` (stereo not drawn), the survival is inactive: 122%.
In the case of `Cc1nc2c(-c3ccccc3)c(C)nn2c(C)c1CCC(=O)N1CCN(c2ccccc2)CC1` it was inactive: 88%; in that of `Cn1nc(C(=O)N2CCN(c3cccc(Cl)c3)CC2)c2c1-c1ccccc1S(=O)(=O)C2`, active: 37%; in that of `CCCCCn1c(NCc2ccccc2OC)nc2ccccc21`, active: -1%.
Consider `CCCS(=O)(=O)c1ncc(Cl)c(C(=O)Nc2c(C(=O)c3ccccc3)oc3ccccc23)n1`, for which the survival was inactive: 102%.
The result for `CCc1cc2c(cc3c(=O)n(CC(=O)N4CCC(C)CC4)nc(CC)n32)s1` reads active: 41%.
In the case of `CCN(CC)S(=O)(=O)c1ccc2c(c1)c(=O)c(C(=O)NCc1ccc(Cl)cc1)cn2C` it was inactive: 63%; in that of `COc1ccc(CC(=O)NCc2ccc3c(c2)CCN3C(C)=O)cc1OC`, inactive: 99%; in that of `COc1cccc(CNC(=O)C2Cc3cc(S(=O)(=O)N4CCCCCC4)ccc3N2C(C)=O)c1` (stereo not drawn), inactive: 97%.
In the case of `CCSc1nnc(C2CCCN(C(=O)C3CCC(OC)CC3)C2)n1C` (stereo not drawn) it was inactive: 83%; in that of `CCOC(=O)C1CCN(C(=O)c2ccc3c(c2)sc2nc(-c4ccccc4)cn23)CC1`, active: 54%; in that of `COc1cccc(CN(Cc2ccc3c(c2)OCO3)S(=O)(=O)c2ccc(-n3cnnn3)cc2)c1`, inactive: 86%.
Consider `Cc1c(C(=O)N(C)C)sc2c1c(=O)n(-c1ccc(F)cc1)c(=O)n2Cc1cc(=O)n2ccccc2n1`, for which the survival is inactive: 94%.
`Nc1c(C(=O)Nc2ccc(Cl)c(C(F)(F)F)c2)sc2nc(-c3ccncc3)ccc12`: the survival is inactive: 81%.
The result for `CCOC(=O)C1CCN(c2nc(-c3ccc(Br)cc3)nc3ccccc23)CC1` reads inactive: 83%.
The result for `Cc1ccc2c(c1)C(c1ccccc1)N(C(=O)c1ccc(OC(C)C)cc1)CC(=O)N2` (stereo not drawn) reads inactive: 59%; that for `Cc1c2cnn(-c3ccccc3)c(=O)c2c(C)n1CC(=O)NCc1ccccc1Br`, inactive: 91%; that for `Cc1cccc(CCNC(=O)Cn2ncc3c(=O)oc4ccccc4c32)c1`, inactive: 88%.
Turning to `CC(=O)c1cccc(NC(=O)C(Cc2ccccc2)NS(=O)(=O)c2ccc(Br)s2)c1` (stereo not drawn), the survival is inactive: 116%.
The result for `O=C(Nc1ccc(Cl)cc1)N1CCC(CN2CCCC2)CC1` reads inactive: 84%.
The result for `COc1ccc(Cn2cc(C(=O)c3ccc(OC)cc3)c(=O)c3cc4c(cc32)OCCO4)cc1` reads inactive: 70%; that for `COc1ccc(OC)c(NC(=O)c2cn3c4c(ccc(Cl)c4c2=O)OC(C)C3)c1` (stereo not drawn), inactive: 87%; that for `O=C(Nc1ccccc1)Nc1nncs1`, inactive: 101%.
In the case of `CCc1ccc(-n2c(=O)c3ccc(C(=O)NCCc4ccccc4)cc3n(CC(N)=O)c2=O)cc1` it was inactive: 86%.
In the case of `O=C(Nc1nnc(S(=O)(=O)N2CCOCC2)s1)c1cccc(F)c1`, the survival is inactive: 80%.
In the case of `CCCCOc1ccc(C(=O)NCC2(N3CCN(C)CC3)CCCCC2)cc1` it was inactive: 80%; in that of `COc1cc(-c2nc3sccn3c2Nc2cccc(C)c2)ccc1O`, inactive: 54%; in that of `Cc1ccc(O)c(-c2ccnc3cc(-c4ccc(Cl)cc4)nn23)c1`, inactive: 86%.
In the case of `Cc1coc2cc3oc(=O)c(CC(=O)NCc4ccc(F)cc4)c(C)c3cc12`, the survival was inactive: 78%.
With `Cc1ccc(-n2c(=O)c3c4c(sc3n(Cc3ccccc3F)c2=O)CCC4)cc1C`, the survival is inactive: 152%.
The result for `Cc1nc(-c2ccc(Cl)cc2)sc1CCNC(=O)c1ccco1` reads inactive: 116%; that for `Oc1ccccc1-c1nc(/C=C/c2ccccc2Cl)no1`, inactive: 67%.
In the case of `Cc1ccccc1NC(=O)CCc1c(C)nn(-c2ccc(N3CCCCC3)nn2)c1C` it was inactive: 78%.
The result for `COc1ccccc1OCCCn1c(C2CC(=O)N(c3ccccc3Cl)C2)nc2ccccc21` (stereo not drawn) reads inactive: 75%; that for `Cc1ccc(Cn2c(=O)n(Cc3nc(-c4ccccc4)no3)c(=O)c3cc4c(cc32)OCO4)cc1`, inactive: 71%.
Regarding `CCN(CCCNC(=O)c1nn(-c2ccc(C)cc2)c(=O)c2c1c1ccccc1n2C)c1ccccc1`, the survival was inactive: 82%.
In the case of `COc1cccc(CNC(=O)CCS(=O)(=O)c2cc3c(cc2C)NC(=O)CO3)c1` it was inactive: 78%; in that of `CCOc1ccc(CNC(=O)CCn2nc(C)c3c(C)n(-c4ccccc4)nc3c2=O)cc1`, inactive: 131%.
`Cc1ccc(C)c(N2CCN(C(=O)CCCn3ncn4c(cc5occc54)c3=O)CC2)c1`: the survival is inactive: 57%.
The result for `COc1ccc(C(=O)Nc2ccc(-c3cc4ccccc4oc3=O)c(C)c2)cc1Br` reads inactive: 91%.
The result for `CN(C)c1ccc(CNC(=O)CCCN2C(=O)CCn3nc(-c4cccn4C)cc32)cc1` reads inactive: 73%; that for `CCCc1nc2sc3c(N4CCCCC4)ncnc3c2c2c1CCCC2`, active: 12%; that for `Cc1ccc(CCNC(=O)CCn2c(=O)c3cccn3c3ccc(F)cc32)cc1`, active: 39%.
On to `COc1cccc(C2NC(=O)NC(C)=C2C(=O)Nc2ccccc2C)c1OC` (stereo not drawn), for which the survival is inactive: 92%.
In the case of `CN(C)Cn1c(O)c(N=NC(=O)c2ccccc2)c2ccccc21` it was inactive: 93%.
In the case of `Cc1cc(=O)n2nc(N3CCC(C(=O)Nc4ccc(C(C)C)cc4)CC3)sc2n1` it was inactive: 98%.
In the case of `CC1(C)CC(=O)C=C(Nc2ccccc2NC(=O)c2cnccn2)C1` it was inactive: 83%; in that of `CC(=O)c1cccc(NC(=O)CCc2c(C)nc3c(-c4ccc(F)cc4)c(C)nn3c2C)c1`, inactive: 76%.
Consider `C=CCSc1nc2ccccc2n1C(=O)c1ccc2c(c1)OCO2`, for which the survival is inactive: 92%.
In the case of `O=C(Nc1ccccc1)N1CCN(C(=O)c2nsc3ccccc23)CC1` it was inactive: 88%; in that of `Cn1c(C(C(=O)NCC2CCCO2)N(C(=O)Cn2nnc3ccccc32)c2ccc3c(c2)OCO3)nc2ccccc21` (stereo not drawn), inactive: 81%.
Turning to `CCCS(=O)(=O)c1ncc(Cl)c(C(=O)N(Cc2ccccc2)Cc2ccco2)n1`, the survival was active: 40%.
In the case of `CCOc1ccc(-c2oc3ccccc3c(=O)c2O)cc1OCC` it was inactive: 72%; in that of `COc1ccccc1NC(=O)C1=C(C)Nc2c(C(=O)Nc3ccc(F)cc3)cnn2C1c1ccc(Cl)cc1` (stereo not drawn), inactive: 81%; in that of `O=C(Nc1ccc(S(=O)(=O)Nc2ccccc2)cc1)N1CCCC1`, inactive: 87%.
In the case of `COc1ccccc1NC(=O)N1CC(=O)Nc2sc3c(c2C1c1ccccc1)CCCC3` (stereo not drawn) it was inactive: 93%; in that of `O=C(NCc1ccc2c(c1)CCN2C(=O)c1ccc(F)cc1)c1ccc(Br)o1`, inactive: 79%; in that of `COCCCN1C(=O)N(c2ccccc2)C(=O)C1CC(=O)Nc1ccc(F)cc1` (stereo not drawn), inactive: 83%.
In the case of `COc1cccc(/C=N/n2c(-c3ccco3)nc3ccccc3c2=O)c1` it was inactive: 100%; in that of `Cc1cc(C)c(NC(=O)Cn2nc3c(cc2=O)CCCC3)c(C)c1`, inactive: 83%.
On to `COc1cc(OC)cc(C(=O)Nc2cc3nn(-c4ccccc4)nc3cc2Cl)c1`, for which the survival was inactive: 105%.
The result for `Cc1ccc(-c2onc(C)c2C)cc1S(=O)(=O)N1CCCCC1` reads inactive: 84%.
In the case of `O=C(Cn1c(=O)n(-c2ccc(F)cc2)c(=O)c2sc3ccccc3c21)N1CCCC1`, the survival is inactive: 79%.
For `Cn1nc(C(=O)NCc2ccccc2)c2c1-c1ccccc1SC2`, the survival was inactive: 76%.
In the case of `COc1ccc(-n2nc(C(=O)N3CCC(C)CC3)c3c4ccccc4n(C)c3c2=O)cc1Cl` it was inactive: 87%; in that of `Cc1ccccc1NC(=O)CSc1nc(-c2ccc(F)cc2)c2cccc(C)c2n1`, inactive: 77%.
The result for `COc1cc(CNC(=O)c2cc(-c3ccccc3)n[nH]2)cc(OC)c1OC` reads inactive: 90%; that for `CCc1nn(CC(=O)NCCc2ccc(OC)cc2OC)c(=O)c2cc3sccc3n12`, inactive: 134%; that for `COc1cccc(CNC(=O)Cn2cc3c(n2)-c2c(oc(C(=O)N4CCCC4)c2C)CC3)c1OC`, inactive: 81%.
The result for `COc1ccc(-c2noc(-c3ccc(NCc4ccc(C)cc4)c([N+](=O)[O-])c3)n2)cc1OC` reads inactive: 69%; that for `Cn1c(=O)c2c(nc(SCC(=O)Nc3ccc(OC(F)(F)F)cc3)n2Cc2cccc(C(F)(F)F)c2)n(C)c1=O`, inactive: 86%; that for `O=C(C1Cc2ccccc2CN1S(=O)(=O)c1ccc(F)cc1)N1CCCCC1` (stereo not drawn), inactive: 99%.
With `Cc1ccc(S(=O)(=O)Nc2cc3c(cc2C)n(C)c(=O)c(=O)n3C)cc1`, the survival is active: -2%.
In the case of `COc1cccc(C2N(c3ccccc3)CCN2c2ccccc2)c1OC` it was inactive: 85%.
With `Cc1cccc(N2CCN(S(=O)(=O)c3cc(Br)cc4c3N(C(=O)C3CC3)CC4)CC2C)c1` (stereo not drawn), the survival was inactive: 61%.
In the case of `COc1ccc(CCn2cc3c(c2-c2ccccc2Br)c(=O)n(C)c(=O)n3C)cc1OC` it was inactive: 67%; in that of `CCCc1noc(-c2ccc(N3CCCCC3)c([N+](=O)[O-])c2)n1`, inactive: 79%.
On to `COc1cc(NC(=O)Cn2ncc3c(=O)oc4ccccc4c32)cc(OC)c1OC`, for which the survival was inactive: 96%.
With `CCc1ccc(S(=O)(=O)c2nnn3c2nc(NCCc2ccccc2)c2sccc23)cc1`, the survival is inactive: 70%.
